Laboratory results published in the supplement of paper PMC9433436.
± gives the standard deviation of the averaged measurements. In all, about 4,100 sequences were measured (“relative kcat/Km (krel) vs genomic leader AAAGAU”: median about 1.7, highest 2% from about 6.5 on). Only a part is listed here, and it is no random draw.

Molecular target: T1, E. coli RNase P holoenzyme (M1 P RNA + rnpA protein) (UniProt P0A7Y8)
T1 sequence: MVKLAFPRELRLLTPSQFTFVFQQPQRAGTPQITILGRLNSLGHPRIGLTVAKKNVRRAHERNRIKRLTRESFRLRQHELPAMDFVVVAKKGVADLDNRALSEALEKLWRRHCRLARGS
Test: relative kcat/Km (krel) vs genomic leader AAAGAU (relative (reference leader = 1)); higher = faster RNase P cleavage
Procedure: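 HTS-Kin: a pool of ptRNA-Met (21C construct) with all 4096 combinations of 5' leader nucleotides N(-6) to N(-1) was processed in vitro by E. coli RNase P (P RNA + rnpA/C5 protein) under multiple-turnover conditions at 37 C, pH 8, 17.5 mM MgCl2. Residual substrate was Illumina-sequenced at several fractions reacted, and relative kcat/Km (krel) was computed by internal competition kinetics, calibrated to the genomic leader (AAAGAU = 1). The listed hexamer is the varied N(-6)..N(-1) leader (DNA letters), and it sits between a fixed 5' stem-loop flank (GCAUGCACGAAAGUGCGUGCUAUGAA) and the mature tRNA-Met starting GGCUACGUAGCUCAGUUGG. Two technical replicates are averaged.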

[1] = fraction of substrate reacted: ~26-29% (28.66% repeat 1, 26.4% repeat 2)
[2] = fraction of substrate reacted: ~9-10% (9.79% repeat 1, 9.1% repeat 2)
[3] = fraction of substrate reacted: ~13-16% (15.68% repeat 1, 13.17% repeat 2)

Sequence | relative kcat/Km [1] | relative kcat/Km [2] | relative kcat/Km [3]
ACACTG | 0.832 ± 0.076 | – | –
GTCGAC | 9.01 ± 3.7 | 3.76 ± 0.29 | 5.92 ± 1.9
TGAGCG | 0.73 ± 0.43 | 1.21 ± 0.89 | –
ACGTGA | 2.21 ± 0.8 | 1.25 ± 0.65 | 1.62 ± 0.83
TGTGCG | – | 0.34 ± 0.32 | –
GGTTCT | 1.96 ± 0.38 | 1.27 ± 0.65 | 1.42 ± 0.36
TTTCAG | 3.23 ± 0.79 | 2.51 ± 2.3 | 1.83 ± 0.22
AATGTT | 1.29 ± 0.62 | 0.792 ± 0.16 | 0.821 ± 0.55
GATGCC | 1.29 ± 0.51 | – | 1.03 ± 0.77
GTCAGC | 7.22 ± 2.9 | 4.18 ± 1.7 | 5.29 ± 0.92
CTTCGC | 4.78 ± 1.5 | 3.26 ± 0.32 | 3.44 ± 1.1
CCTACG | 1.4 ± 0.03 | – | –
TCCGCG | 2.73 ± 0.31 | – | 1.04 ± 0.41
GCTCGA | 2.41 ± 0.12 | 1.37 ± 1.2 | 1.93 ± 0.28
AGTTGG | 0.931 ± 0.14 | – | 0.447 ± 0.35
CTCACG | 3.03 ± 0.6 | 2.76 ± 2 | 1.25 ± 0.38
TCCTCG | 3.64 ± 0.61 | 2.35 ± 1.9 | 2.52 ± 0.14
ACGGTG | 0.881 ± 0.76 | – | –
ACGGAG | 0.397 ± 0.16 | – | –
ATATCG | 1.87 ± 0.4 | 1.74 ± 1.2 | 0.892 ± 0.52
CCCTTT | 5.02 ± 2 | 2.73 ± 0.52 | 3.73 ± 1.1
TGCACA | 2.3 ± 1.5 | 2.14 ± 0.62 | 1.91 ± 0.71
CTGTTT | 1.93 ± 0.28 | 1.08 ± 0.27 | 1.06 ± 0.26
AGCTCT | 3 ± 0.56 | 2.35 ± 1.9 | 2.09 ± 0.63
ATTGCC | 2.32 ± 0.36 | 1.65 ± 0.57 | 2.18 ± 0.27
GACACT | 5.13 ± 1.9 | 2.62 ± 1.4 | 3.63 ± 0.68
GCACTT | 1.83 ± 0.81 | 0.906 ± 0.68 | –

Sequence | relative kcat/Km [1] | relative kcat/Km [2] | relative kcat/Km [3]
CTTCCC | 1.93 ± 0.53 | 1.37 ± 0.18 | 1.5 ± 1.2
ACAAAT | 2.64 ± 0.98 | 1.78 ± 0.91 | 1.41 ± 0.19
TCGCAC | 5.8 ± 2.9 | 3.9 ± 0.6 | 4.12 ± 0.71
AACAAG | 3.26 ± 0.69 | – | 1.32 ± 0.57
CATAAC | 4.32 ± 1.7 | 3.11 ± 1.8 | 3.12 ± 0.21
AAAGAT | 1 | 1 | 1
CTTGCA | 2.33 ± 1.2 | 1.99 ± 0.26 | 1.54 ± 1.1
TTAAAC | 3.61 ± 2 | 1.82 ± 0.12 | 2.48 ± 1
CCTTTC | 3.08 ± 0.83 | 2.13 ± 0.9 | 2.39 ± 0.27
GCCCAC | 5.93 ± 2.8 | 3.04 ± 0.041 | 4.04 ± 1.6
CCACTC | 2.26 ± 0.068 | 1.85 ± 1.1 | 1.48 ± 0.098
ATGGGC | 0.531 ± 0.1 | – | –
GCAGTA | 1.16 ± 0.17 | – | –
ACAATT | 1.96 ± 0.53 | 1.58 ± 0.85 | 1.38 ± 0.4
TCATGT | 2.68 ± 2.2 | – | –
TGCGCG | 1.36 ± 0.13 | 0.601 ± 0.28 | –
ACCCTA | 3.23 ± 1.6 | 2.06 ± 0.2 | 2.57 ± 0.8
CGTTGA | 5.86 ± 1.9 | 2.87 ± 0.84 | 3.51 ± 1.2
GATACT | 2.46 ± 0.84 | 1.05 ± 0.2 | 1.51 ± 0.24
CACGTA | 3.56 ± 1.4 | 1.91 ± 1.1 | 2.23 ± 0.31
AGGAGT | 0.621 ± 0.6 | – | –
TGCACT | 1.68 ± 1 | 1.04 ± 0.036 | –
TCATCT | 4.09 ± 1 | 2.18 ± 1.2 | 2.78 ± 0.36
CTTCTT | 3.45 ± 0.96 | 2.75 ± 1.4 | 3.05 ± 0.55
CATCAT | 6.5 ± 2.4 | 3.29 ± 1.9 | 4.73 ± 0.34
GACGGC | 1.75 ± 1.7 | – | –
